In paper PMC4336329 (PLoS ONE, 2015):
In all, about 310,000 compounds went through this assay and about 14,000 (4.5%) showed an effect of 50% or more. The effect is printed as a negative number. The list shows a part of the results.

Each molecule was assayed against human ether-à-go-go-related gene (hERG) potassium channel (human, UniProt Q12809) (assay: primary screen, population patch clamp on CHO cells stably expressing hERG).
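Also: peak tail current of the secondary pulse compared with the same well before compound.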

Sequence of human ether-à-go-go-related gene (hERG) potassium channel (Q12809 whole entry, looked up): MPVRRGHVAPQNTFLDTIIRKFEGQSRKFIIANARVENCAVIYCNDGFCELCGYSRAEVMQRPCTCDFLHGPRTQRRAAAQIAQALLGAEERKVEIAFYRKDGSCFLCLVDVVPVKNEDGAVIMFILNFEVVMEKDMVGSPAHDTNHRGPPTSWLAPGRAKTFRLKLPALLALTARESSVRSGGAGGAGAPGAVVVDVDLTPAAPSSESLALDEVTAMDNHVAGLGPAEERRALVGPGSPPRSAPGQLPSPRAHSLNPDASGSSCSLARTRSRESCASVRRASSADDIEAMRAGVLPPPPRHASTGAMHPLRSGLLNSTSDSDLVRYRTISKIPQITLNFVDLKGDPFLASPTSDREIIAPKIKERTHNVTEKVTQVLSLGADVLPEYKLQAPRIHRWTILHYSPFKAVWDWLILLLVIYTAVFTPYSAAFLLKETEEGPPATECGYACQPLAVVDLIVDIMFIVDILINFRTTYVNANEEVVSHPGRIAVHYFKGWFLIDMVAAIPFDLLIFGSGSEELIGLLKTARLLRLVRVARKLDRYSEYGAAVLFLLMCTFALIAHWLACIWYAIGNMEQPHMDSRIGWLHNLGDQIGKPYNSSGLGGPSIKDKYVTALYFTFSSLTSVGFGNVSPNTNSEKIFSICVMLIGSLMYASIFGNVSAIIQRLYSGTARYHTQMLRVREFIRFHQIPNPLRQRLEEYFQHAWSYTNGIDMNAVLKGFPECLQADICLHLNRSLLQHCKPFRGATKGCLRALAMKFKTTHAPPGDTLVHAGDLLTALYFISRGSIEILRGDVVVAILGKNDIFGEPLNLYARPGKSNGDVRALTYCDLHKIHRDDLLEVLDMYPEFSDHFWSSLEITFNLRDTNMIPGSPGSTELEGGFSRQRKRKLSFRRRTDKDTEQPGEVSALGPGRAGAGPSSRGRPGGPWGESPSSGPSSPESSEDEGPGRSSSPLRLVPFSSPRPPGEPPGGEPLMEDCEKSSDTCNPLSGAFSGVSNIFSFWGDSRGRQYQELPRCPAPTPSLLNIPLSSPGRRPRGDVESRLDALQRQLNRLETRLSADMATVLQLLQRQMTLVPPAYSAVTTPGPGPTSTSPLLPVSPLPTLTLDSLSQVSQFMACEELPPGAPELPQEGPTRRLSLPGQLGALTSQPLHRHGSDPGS

Row | SMILES | hERG current change (%, negative = inhibition) at 10uM [%]
1 | CCNC(=S)Nc1ccc(OC(F)(F)F)cc1 | 1.94
2 | COc1ccc(-c2nnc(SCC(=O)NCc3ccco3)o2)cc1 | 0.0381
3 | COc1ccccc1NC(=S)NC1CCCCCC1 | -3.32
4 | O=C(CCCOc1ccccc1)NC(=S)Nc1ccccc1 | 8.74
5 | CC(C(=O)NCCc1ccc(Cl)cc1)n1c(=O)c2cccn2c2cccnc21 (stereo not shown) | -6.64
6 | Cc1ccc(-c2nnc(SCC(=O)N/N=C/c3c(C)nn(-c4ccccc4)c3C)n2-c2ccc(C)cc2)cc1 | 4.21
7 | O=C(CSc1nccn(-c2ccc(F)c(Cl)c2)c1=O)NC1CCCC1 | 13.6
8 | COc1cc(NC(=O)Cn2ccsc2=N)cc(OC)c1.Cl | 9.11
9 | O=C(NCc1ccco1)c1ccc(S(=O)(=O)N2CCCCCC2)cc1 | -12.6
10 | Nc1ccc(SCC(=O)Nc2cccc([N+](=O)[O-])c2)cc1 | -9.16
11 | Cc1cc(Cl)c(S(N)(=O)=O)cc1OCC(N)=O | 5.39
12 | CCOC(=O)c1nnn(-c2nonc2N)c1CN1CCCCCC1 | 0.52
13 | COc1cc(F)c(C2=CC(=O)CC(C)(C)C2)cc1F | -5.26
14 | COc1ccc(NS(=O)(=O)/C=C/c2ccccc2)cc1 | -0.961
15 | Oc1ccc(C2=Nn3c(nnc3-c3ccco3)SC2)cc1O | 0.591
16 | Cc1ccc(S(=O)(=O)Nc2ccc(N(C)C)cc2)cc1 | 7.99
17 | Cc1ccc[n+](CC(=O)N2CCCc3ccccc32)c1.[Cl-] | 25.7
18 | CS(=O)(=O)N1CCC(C(=O)N2CCN(c3ccccc3F)CC2)CC1 | 14.2
19 | COC(=O)c1ccc(C(=O)N2CCCC(CNC(=O)c3ccccc3Cl)C2)cc1 (stereo not shown) | 3.62
20 | Cc1csc(NC(=O)c2cc(C)nc3ccccc23)n1 | -11.7

Row | SMILES | hERG current change (%, negative = inhibition) at 10uM [%]
21 | CCSc1nc2nc(C)cc(C)n2n1 | 32.8
22 | Cc1cc(C)c(NC(=O)CN(c2ccccc2)S(=O)(=O)N(C)C)c(C)c1 | -1.77
23 | C=C(C)C1CC=C(C)/C(=N\NC(=O)CNc2ccccc2OC)C1 (stereo not shown) | 14.4
24 | CCCCN(C(=O)CC1CCCC1)c1c(N)n(CCC)c(=O)[nH]c1=O | -0.622
25 | Cc1ccc(S(=O)(=O)Nc2ccccc2F)cc1C(=O)NNC(=O)c1ccccc1O | -6.2
26 | COc1ccc(C(=O)Nc2ccc(NS(=O)(=O)c3ccccc3)cc2)cc1OC | 0.548
27 | CN(CC(=O)Nc1c(Cl)cccc1Cl)C(=O)CC1OC(=O)c2ccccc21 (stereo not shown) | -2.8
28 | Cc1onc(-c2ccccc2Cl)c1C(=O)OCn1nnc2ccccc2c1=O | -5.09
29 | CC(=O)OCC(=O)Nc1ccc(Br)c(C)c1 | 8.49
30 | O=C1c2ccccc2NC(c2ccccc2Br)N1CCCN1CCOCC1 (stereo not shown) | -15
31 | N#Cc1cccc(S(=O)(=O)Nc2c(NC3CCCCC3)c3ccccc3oc2=O)c1 | -53.9
32 | O=C(NNC(=O)c1ccccc1F)c1ccc(-n2cncn2)c([N+](=O)[O-])c1 | 7.74
33 | COc1ccc(-c2nc(CS(=O)CC(=O)NCC3CCCO3)c(C)o2)cc1 (stereo not shown) | -7.32
34 | OCC[C@H]1C[C@@H](O)[C@H](O)[C@]2(CCc3ccccc3CO2)O1 | 3.5
35 | COC(=O)C1CCN(C(=O)COC(=O)C2CCN(S(=O)(=O)c3c(Cl)cccc3Cl)CC2)CC1 | -41.9
36 | c1ccc(COn2nnc3ccccc32)c(COn2nnc3ccccc32)c1 | -21.3
37 | Cc1cc(NC(=O)NCC(F)(F)F)no1 | 10.5
38 | COc1ccc(CN(C)C(=O)CNC(=O)c2ccc3ccccc3c2)c(OC)c1 | -14.1
39 | Cc1ccccc1NS(=O)(=O)c1ccc(C(=O)N2CCN(c3ccccc3O)CC2)cc1 | 7.73
40 | O=c1c2ccccc2cnn1Cc1n[nH]c(=S)n1-c1ccccc1 | 30.7

Row | SMILES | hERG current change (%, negative = inhibition) at 10uM [%]
41 | COc1ccc(Cl)c(Cn2c(NCc3ccccn3)nc3c2c(=O)n(C)c(=O)n3C)c1 | -20.3
42 | Cc1nc(NC(=O)/C=C/c2ccccc2)sc1C(=O)Nc1ccc(Cl)cc1 | 5.27
43 | Cc1ccc(S(=O)(=O)N2CCCCC2)cc1NC(=O)CSc1ncn[nH]1 | 12
44 | COc1ccc(-c2nn(-c3ccccc3)cc2C(=O)Nc2ccc(C(=O)O)cc2)cc1 | 6.82
45 | CC(C)(C)n1nnnc1CN(Cc1ccc(F)cc1)Cc1ccco1 | -7.57
46 | CCSc1ccc2nnc(-c3cccs3)n2n1 | -34
47 | Cc1[nH][nH]c(=O)c1C(c1ccc(N(C)C)c(Br)c1)c1c(C)[nH][nH]c1=O | 15.2
48 | COc1ccc(C(=O)CC(=O)C(=O)Nc2ccccc2OC)cc1 | 0.79
49 | COc1ccc(NC(=O)c2cnn(-c3ccccc3)c2C)c(OC)c1 | 8.67
50 | O=C(O)c1cccnc1NC1CCCC1 | 0.89
51 | Cc1ccc(OCCOc2ccc(Cl)cc2Cl)c([N+](=O)[O-])n1 | -0.813
52 | O=C(O)c1ccc(-n2nncc2-c2ccccc2)cc1 | 8.58
53 | COc1ccc(CCNC(=O)c2ccccc2N(C)S(=O)(=O)c2ccccc2)cc1 | -4.4
54 | CCCC[N+](C)(C)CCC(=O)NC(C)(C)CS(=O)(=O)[O-] | -20.1
55 | CCOC(=O)c1c(C)[nH]c(C(=O)COC(=O)CCC2CCCC2)c1C | -3.26
56 | COc1ccc(NC(=O)C2OCCc3ccccc32)c(OC)c1 (stereo not shown) | 9.36
57 | C=CCn1c(SCC(=O)Nc2nnc(C)s2)nnc1C1CC1 | 16.5
58 | CCCNC(=O)c1ccc(N2CCC3(CC2)CC(c2ccccc2)=NO3)c([N+](=O)[O-])c1 | -53
